Assay results published in publication PMC12040169 (PLOS Biology, 2025).
The list shows a part of the results.

These compounds were tested on T1, C. trachomatis L2/434/Bu expressing GFP (CTL2-GFP). Conditions: total inclusion area; 28.5 h, 10 µM; inhibitor.
T1 construct: L2/434/Bu GFP intracellular growth in HeLa cells
Set-up: species or system HeLa; C. trachomatis total inclusion area by high-content imaging, normalised to DMSO
Method in brief: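 Host cell viability was gauged from Hoechst-stained nuclei counts, while chlamydial growth was taken from total inclusion area and inclusion number per well. Cells were fixed and imaged by high-content microscopy once bulk GFP and resorufin fluorescence had been measured.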

SMILES | % of control remaining
N=c1c2c3c(sc2ncn1CCCn1ccnc1)CCCC3 [CBK264211] | 128.013
CCOc1ccc(NCCCCO)cc1 [CBK264386] | 102.955
C[C@]1(CO)[C@H]2Cc3sc(-c4ccccc4)nc3[C@@H](CC(=O)O)[C@]2(C)CC[C@H]1O [CBK289572] | 92.135
O=C(Nc1ccc2c(c1)OCCO2)N1CCN(c2cc(C(F)(F)F)ccn2)CC1 [CBK162331] | 23.3619
Cc1nc(C(Cc2ccsc2)NC(=O)Cn2cccn2)sc1C (stereo not shown) [CBK284781] | 120.387
Cc1csc2c(N3CCC(NCCCc4cnn(C)c4)CC3)ncnc12 [CBK307291] | 20.8486
CC1CCN(S(=O)(=O)c2cccc(C(=O)N3CCC(C(=O)O)CC3)c2)CC1 [CBK266790] | 71.9198
CN(C)CC1(O)C2CN3CCN(C2)CC1(c1ccccc1)C3 (stereo not shown) [CBK263029] | 103.227
Cc1nc(O)cc(C2CCCN(C(=O)c3csc4c3CCCC4)C2)n1 (stereo not shown) [CBK306696] | 86.3064
COCCNc1ncnc2sc3c(c12)CCCC3 [CBK287583] | 98.8899
O=C(Nc1ccc(I)cc1C(=O)NCCN1CCOCC1)c1ccccc1Cl [CBK266245] | 65.1932
Cc1nc(C2CN(Cc3cc4ccccc4nc3Cl)CCO2)no1 (stereo not shown) [CBK305381] | 82.1709
O=C(NC(=S)Nn1cnnc1)c1ccccc1 [CBK028188] | 84.1574
O=C(/C(=C\c1ccc([N+](=O)[O-])cc1)n1cncn1)c1ccc(Cl)cc1Cl [CBK262145] | 85.2111
Cc1cc(C)nc(Nc2cccc(C3CCCN3C(=O)CCOc3ccccc3C)n2)n1 (stereo not shown) [CBK286496] | 109.692
CCOc1ccc(NC(=O)NC(CC)c2cnn(C)c2)cc1Cl (stereo not shown) [CBK307262] | 58.3282
Cc1cnc(CNC(=O)N2CCN(Cc3ccccc3)CC2)cn1 [CBK155627] | 72.4477
Cc1ccc(OCC(=O)NC(C)c2ccc(F)cc2F)c([N+](=O)[O-])n1 (stereo not shown) [CBK295662] | 58.4391
O=C(Nc1ccc2nc3n(c(=O)c2c1)CCCC3)C1CCCCC1 [CBK304383] | 14.586
Cc1ccc(S(=O)(=O)NCCCO)cc1C(=O)O [CBK266610] | 116.982
O=C(c1cc(C2CCCN(Cc3ccccc3)C2)no1)N1CCCC1 (stereo not shown) [CBK283395] | 98.1349

SMILES | % of control remaining
Cc1cccn2c(=O)cc(CN3CCC(CNc4ccccn4)C3)nc12 (stereo not shown) [CBK306123] | 74.8012
O=C(Cn1c(-c2cncs2)nc2ccccc21)NCc1ccccc1 [CBK264705] | 97.8962
CC(=O)N1CCC2(CC1)NC(=O)N(c1ccc(C(=O)O)cc1)N2 [CBK286758] | 49.8844
c1ccc(COCCCN2CCC3(CC2)OCCc2c3[nH]c3ccccc23)cc1 [CBK040208] | 101.998
O=C(Cc1cccc(F)c1)N1CCC(c2cc3ncccc3[nH]2)CC1 [CBK283374] | 83.2066
O=C(c1ccccc1O)N1CCN(Cc2cc(=O)n3ccsc3n2)CC1 [CBK306096] | 57.7996
COc1ccc(Cc2n[nH]c(=S)n2-c2cccnc2)cc1 [CBK288373] | 55.2264
Nc1nc(Cl)c2ncn([C@H]3C[C@@H](O)[C@@H](CO)O3)c2n1 [CBK201193] | 112.932
O=C(O)C1C(C(=O)O)C1C(=O)O (stereo not shown) [CBK230432] | 92.8479
O=c1c2cccnc2ncn1CC(O)COc1ccc(-c2ccccc2)cc1 (stereo not shown) [CBK296690] | 123.379
CCC(C)c1ccc(NC(=O)CSc2nnnn2C)cc1 (stereo not shown) [CBK058085] | 50.9123
CCS(=O)(=O)NC1CCN(c2nc(C(F)(F)F)nc3[nH]cnc23)CC1 [CBK304588] | 68.5716
FC(F)(F)c1ccc(SCc2cccs2)nc1 [CBK103711] | 88.7319
CC(C)(C)OC(=O)NCCc1ccc(Nc2cc(-c3ccc4c(c3)OCO4)ncn2)cc1 [CBK090957] | 110.435
CCN(CC)CCN(CC(=O)Nc1c(C)cccc1Cl)Cc1ccccc1 [CBK023143] | 69.1239
Cc1cc(C)c2cc(CN(CCO)Cc3nnnn3CC3CCCO3)c(=O)[nH]c2c1 (stereo not shown) [CBK108944] | 88.2032
CCCCCOc1nccnc1N1CCNCC1 [CBK001901G] | 96.8969
Cc1ccc(C(NC(=O)CC(C)C)c2ccc3cccnc3c2O)cc1 (stereo not shown) [CBK293943] | 95.4397
O=C(Cn1c2ccccc2n2ncnc12)c1ccc(-c2ccccc2)cc1 [CBK263097] | 80.1321
C=CCn1c(SCCC(=O)O)nc2c1c(=O)n(C)c(=O)n2C [CBK269573] | 102.007
O=S1(=O)N=CNc2ccccc21 [CBK028171] | 89.7358

SMILES | % of control remaining
O=c1c2c3nc4ccccc4nc3n(CCc3ccccc3)c2ncn1C1CCCC1 [CBK269464] | 73.2491
O=C(Nc1ccc(F)c(Cl)c1)c1cccnc1Sc1cccs1 [CBK057512] | 84.1362
NC(=O)c1ccccc1NC(=O)c1ccc2ccccc2c1 [CBK261171] | 94.9878
Cc1nc2ccccc2nc1COC(=O)c1ccc(S(=O)(=O)N2CCCCC2C)cc1 (stereo not shown) [CBK297932] | 91.4043
Cn1cc(C(=O)N2CCc3nc(-c4ccccc4F)sc3C2)cn1 [CBK281914] | 97.9628
CC(=O)Nc1cccc(NC(=O)CSc2ncnc3c2nnn3C)c1 [CBK287829] | 110.751
COc1ccc(Nc2nccc3c2nnn3C)cc1 [CBK287879] | 100.049
O=C(O)c1cccc(Nc2nc3ccccc3nc2NS(=O)(=O)c2ccc(Br)cc2)c1 [CBK296113] | 109.173
CN(CC(=O)OCC(=O)c1ccccc1)S(=O)(=O)c1ccc(Cl)cc1 [CBK264363] | 94.4692
CC1c2ccsc2CCN1C(=O)COc1ccc(Br)cc1 (stereo not shown) [CBK304999] | 24.4244
COc1cccc(-c2cnc(N)c(NCc3ccco3)n2)c1 [CBK063684] | 105.045
Cn1cc(-c2ncc(OCCc3c[nH]c4ccccc34)nc2N)cn1 [CBK145166] | 91.021
CC(CCCC(C)(C)O)Nc1cncc(-c2cccc(C(=O)O)c2)n1 (stereo not shown) [CBK065489] | 61.3362
CSc1nnc(CC2CCN(C(=O)c3ccccc3C(C)=O)CC2)n1C [CBK306720] | 73.7337
Cc1cccc(-c2ccc3c(c2)C(=O)N2CC[C@H](NC(=O)NC(C)C)C[C@H]2C(=O)N3)c1C [CBK289567] | 118.493
CN(/N=C\c1ccc([N+](=O)[O-])cc1)c1nc(-c2ccccc2)cc(-c2ccccc2)n1 [CBK261517] | 90.1897
O=C(c1ccco1)N1CCC(n2c(=O)oc3ccccc32)CC1 [CBK284350] | 45.4889
CC(=O)Nc1cccc(-n2cc(-c3cccc(C(F)(F)F)c3)nn2)c1 [CBK112938] | 86.5484
CC(C)(CN1CCCCC1)NC(=O)CCOc1cccc(F)c1 [CBK282060] | 98.7755
CN(CCN1CCOCC1)c1nc2c(c(=O)[nH]1)Cc1ccccc1OC2 [CBK306783] | 96.1176
COc1ccc(-c2noc(CSc3nc4sc(C)c(C)c4c(=O)n3-c3ccccc3)n2)cc1 [CBK268264] | 116.444

SMILES | % of control remaining
COc1ccc(S(=O)(=O)N(CC(=O)O)C2CCCCC2)cc1Cl [CBK267997] | 84.2662
CC(=O)c1ccc(OC(C)C)c(CSc2nc(O)cc(O)n2)c1 [CBK263446] | 94.7429
CCCCNC(=O)c1c(N)n(-c2ccc(C(=O)O)cc2)c2nc3ccccc3nc12 [CBK300500] | 82.9575
N#C/C(=C\c1ccc(OCC(=O)O)cc1)C(N)=S [CBK268917] | 117.372
Oc1ccc(/N=C/c2ccc(/C=N/c3ccc(O)cc3)cc2)cc1 [CBK261203] | 94.573
Cc1nc(-c2n[nH]cc2-c2ccccc2F)sc1CCN [CBK281578] | 92.5198
CCCOc1ccc(C(C)=O)cc1CC(C(N)=O)C(N)=O [CBK263309] | 61.3497
COc1ccc(OCc2nn(-c3nc4ccccc4s3)c(N)c2-c2ccccc2)cc1 [CBK266539] | 93.1235
Cc1csc([C@H]2Cc3ccsc3[C@@H](C3CCOC3)N2)n1 (stereo partly shown) [CBK285089] | 118.891
Cn1nnnc1NC(=O)c1ccccc1F [CBK058776] | 94.5456
COc1ccc(N2C(=O)CC(n3c(CCCCO)nc4ccccc43)C2=O)cc1 (stereo not shown) [CBK268895] | 84.6075
Cc1ccc(S(N)(=O)=O)cc1-c1nnc2c3ccccc3c(C)nn12 [CBK266680] | 75.962
CCn1ncnc1CN(C)Cc1ccc2c(c1)CN(C)C2 [CBK306530] | 88.0167
CCc1ccc(C(O)CNC2CCN(CCOC)CC2)cc1 (stereo not shown) [CBK304259] | 48.3683
CC(Sc1ccc(Cl)cc1)C(=O)Nc1ccc(CSc2ccccc2)cc1 (stereo not shown) [CBK264670] | 101.578
COc1ccc(CC(=O)NNC(=O)Nc2ccc(Cl)c(Cl)c2)cc1 [CBK262652] | 97.7919
Cc1ccc(NS(=O)(=O)c2cc(C(=O)N3CCN(C)CC3)ccc2C)cc1 [CBK268577] | 112.399
CC1(NC(=O)CC(c2ccncc2)c2c[nH]c3ccccc23)CCC1 (stereo not shown) [CBK281610] | 99.6016
O=C(NCCSCc1ccco1)Nc1ccc(Cl)cc1 [CBK267869] | 115.971
